Results: publication PMC5612949
No constants are given. Whether binding was seen depends on the method and setting. In cells and extracts the contact can be indirect. Some entries that bind do so weakly or less than the wild type.

Protein sequences, listed by entry. Tags and fused reporters are not part of them.
UniProt Q9UKL0: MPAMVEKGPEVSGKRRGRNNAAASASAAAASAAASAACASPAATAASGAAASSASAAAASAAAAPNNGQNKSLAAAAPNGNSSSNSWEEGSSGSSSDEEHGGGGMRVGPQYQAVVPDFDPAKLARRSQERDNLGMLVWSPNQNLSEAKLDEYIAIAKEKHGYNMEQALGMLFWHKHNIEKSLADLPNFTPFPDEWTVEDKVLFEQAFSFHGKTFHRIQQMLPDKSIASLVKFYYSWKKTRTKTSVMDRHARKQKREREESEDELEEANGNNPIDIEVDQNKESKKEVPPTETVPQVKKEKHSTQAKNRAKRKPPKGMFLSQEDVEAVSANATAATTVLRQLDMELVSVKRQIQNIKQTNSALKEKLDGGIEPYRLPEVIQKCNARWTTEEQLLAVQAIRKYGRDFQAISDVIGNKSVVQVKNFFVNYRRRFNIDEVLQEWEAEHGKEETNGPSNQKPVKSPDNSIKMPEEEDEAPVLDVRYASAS
UniProt Q92769: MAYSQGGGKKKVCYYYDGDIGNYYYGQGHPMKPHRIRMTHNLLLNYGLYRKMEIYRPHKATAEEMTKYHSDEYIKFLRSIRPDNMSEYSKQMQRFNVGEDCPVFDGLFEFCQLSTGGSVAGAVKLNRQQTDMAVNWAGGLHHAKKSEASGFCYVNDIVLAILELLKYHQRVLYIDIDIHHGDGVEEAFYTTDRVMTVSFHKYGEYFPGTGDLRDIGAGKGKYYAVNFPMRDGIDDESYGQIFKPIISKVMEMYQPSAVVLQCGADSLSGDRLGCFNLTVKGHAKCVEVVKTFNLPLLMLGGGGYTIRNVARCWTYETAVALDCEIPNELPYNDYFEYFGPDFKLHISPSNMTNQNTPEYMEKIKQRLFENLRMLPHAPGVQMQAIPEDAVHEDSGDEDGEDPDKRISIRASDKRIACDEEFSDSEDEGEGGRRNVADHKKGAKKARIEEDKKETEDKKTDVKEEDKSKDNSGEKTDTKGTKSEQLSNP
UniProt Q13547: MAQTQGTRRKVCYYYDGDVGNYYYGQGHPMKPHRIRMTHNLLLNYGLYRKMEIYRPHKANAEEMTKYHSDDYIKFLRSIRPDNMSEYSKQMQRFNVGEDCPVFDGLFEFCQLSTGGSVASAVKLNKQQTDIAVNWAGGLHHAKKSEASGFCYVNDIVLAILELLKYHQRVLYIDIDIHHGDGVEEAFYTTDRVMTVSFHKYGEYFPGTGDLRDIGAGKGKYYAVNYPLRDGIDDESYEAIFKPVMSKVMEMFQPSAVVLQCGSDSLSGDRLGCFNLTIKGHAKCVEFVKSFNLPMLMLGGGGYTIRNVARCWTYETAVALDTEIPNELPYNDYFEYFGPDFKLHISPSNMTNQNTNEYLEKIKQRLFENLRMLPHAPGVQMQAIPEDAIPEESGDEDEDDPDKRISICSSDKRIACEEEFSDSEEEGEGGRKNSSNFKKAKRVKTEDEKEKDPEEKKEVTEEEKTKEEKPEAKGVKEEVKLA

Tests used:
[1] = target: CoREST (corepressor of RE1 silencing transcription factor), endogenous (human (endogenous in HEK293T, MCF-7 and MDA-MB-231)) (UniProt Q9UKL0); experiment: co-IP; endogenous proteins, whole-cell lysates of MCF-7 or MDA-MB-231, immunoprecipitation with antibodies against ZNF516 or against the complex components (IgG as control), immunoblotting; lysis buffer 50 mM Tris-HCl pH 7.5, 150 mM NaCl, 0.5% NP-40, 2 mM EDTA, 4 °C
[2] = target: CtBP2 (C-terminal binding protein 2), endogenous (human (endogenous in HEK293T, MCF-7 and MDA-MB-231)) (UniProt P56545); experiment: as above
[3] = target: GST-fused HDAC2 (UniProt Q92769); experiment: pull-down; GST fusion protein from E. coli immobilised on glutathione-Sepharose 4B, in vitro transcribed/translated protein (rabbit reticulocyte lysate) added for 2 h at 4 °C; 10 mM HEPES pH 7.6, 3 mM MgCl2, 100 mM KCl, 5 mM EDTA, 5% glycerol, 0.5% CA630; only the target purified
[4] = target: GST-fused HDAC1 (UniProt Q13547); experiment: as above
[5] = target: GST-fused CoREST (UniProt Q9UKL0); experiment: as above
[6] = target: GST-fused CtBP2 (UniProt P56545); experiment: as above

B1: ZNF516, endogenous (protein, UniProt Q92618 1-1163)
chain: MDRNREAEMELRRGPSPTRAGRGHEVDGDKATCHTCCICGKSFPFQSSLSQHMRKHTGEKPYKCPYCDHRASQKGNLKIHIRSHRTGTLIQGHEPEAGEAPLGEMRASEGLDACASPTKSASACNRLLNGASQADGARVLNGASQADSGRVLLRSSKKGAEGSACAPGEAKAAVQCSFCKSQFERKKDLELHVHQAHKPFKCRLCSYATLREESLLSHIERDHITAQGPGSGEACVENGKPELSPGEFPCEVCGQAFSQTWFLKAHMKKHRGSFDHGCHICGRRFKEPWFLKNHMKAHGPKTGSKNRPKSELDPIATINNVVQEEVIVAGLSLYEVCAKCGNLFTNLDSLNAHNAIHRRVEASRTRAPAEEGAEGPSDTKQFFLQCLNLRPSAAGDSCPGTQAGRRVAELDPVNSYQAWQLATRGKVAEPAEYLKYGAWDEALAGDVAFDKDRREYVLVSQEKRKREQDAPAAQGPPRKRASGPGDPAPAGHLDPRSAARPNRRAAATTGQGKSSECFECGKIFRTYHQMVLHSRVHRRARRERDSDGDRAARARCGSLSEGDSASQPSSPGSACAAADSPGSGLADEAAEDSGEEGAPEPAPGGQPRRCCFSEEVTSTELSSGDQSHKMGDNASERDTGESKAGIAASVSILENSSRETSRRQEQHRFSMDLKMPAFHPKQEVPVPGDGVEFPSSTGAEGQTGHPAEKLSDLHNKEHSGGGKRALAPDLMPLDLSARSTRDDPSNKETASSLQAALVVHPCPYCSHKTYYPEVLWMHKRIWHRVSCNSVAPPWIQPNGYKSIRSNLVFLSRSGRTGPPPALGGKECQPLLLARFTRTQVPGGMPGSKSGSSPLGVVTKAASMPKNKESHSGGPCALWAPGPDGYRQTKPCHGQEPHGAATQGPLAKPRQEASSKPVPAPGGGGFSRSATPTPTVIARAGAQPSANSKPVEKFGVPPAGAGFAPTNKHSAPDSLKAKFSAQPQGPPPAKGEGGAPPLPPREPPSKAAQELRTLATCAAGSRGDAALQAQPGVAGAPPVLHSIKQEPVAEGHEKRLDILNIFKTYIPKDFATLYQGWGVSGPGLEHRGTLRTQARPGEFVCIECGKSFHQPGHLRAHMRAHSVVFESDGPRGSEVHTTSADAPKQGRDHSNTGTVQTVPLRKGT
binding [1]: binds
binding [2]: binds

B2: in vitro transcribed/translated ZNF516 (protein, UniProt Q92618 1-1163)
chain: MDRNREAEMELRRGPSPTRAGRGHEVDGDKATCHTCCICGKSFPFQSSLSQHMRKHTGEKPYKCPYCDHRASQKGNLKIHIRSHRTGTLIQGHEPEAGEAPLGEMRASEGLDACASPTKSASACNRLLNGASQADGARVLNGASQADSGRVLLRSSKKGAEGSACAPGEAKAAVQCSFCKSQFERKKDLELHVHQAHKPFKCRLCSYATLREESLLSHIERDHITAQGPGSGEACVENGKPELSPGEFPCEVCGQAFSQTWFLKAHMKKHRGSFDHGCHICGRRFKEPWFLKNHMKAHGPKTGSKNRPKSELDPIATINNVVQEEVIVAGLSLYEVCAKCGNLFTNLDSLNAHNAIHRRVEASRTRAPAEEGAEGPSDTKQFFLQCLNLRPSAAGDSCPGTQAGRRVAELDPVNSYQAWQLATRGKVAEPAEYLKYGAWDEALAGDVAFDKDRREYVLVSQEKRKREQDAPAAQGPPRKRASGPGDPAPAGHLDPRSAARPNRRAAATTGQGKSSECFECGKIFRTYHQMVLHSRVHRRARRERDSDGDRAARARCGSLSEGDSASQPSSPGSACAAADSPGSGLADEAAEDSGEEGAPEPAPGGQPRRCCFSEEVTSTELSSGDQSHKMGDNASERDTGESKAGIAASVSILENSSRETSRRQEQHRFSMDLKMPAFHPKQEVPVPGDGVEFPSSTGAEGQTGHPAEKLSDLHNKEHSGGGKRALAPDLMPLDLSARSTRDDPSNKETASSLQAALVVHPCPYCSHKTYYPEVLWMHKRIWHRVSCNSVAPPWIQPNGYKSIRSNLVFLSRSGRTGPPPALGGKECQPLLLARFTRTQVPGGMPGSKSGSSPLGVVTKAASMPKNKESHSGGPCALWAPGPDGYRQTKPCHGQEPHGAATQGPLAKPRQEASSKPVPAPGGGGFSRSATPTPTVIARAGAQPSANSKPVEKFGVPPAGAGFAPTNKHSAPDSLKAKFSAQPQGPPPAKGEGGAPPLPPREPPSKAAQELRTLATCAAGSRGDAALQAQPGVAGAPPVLHSIKQEPVAEGHEKRLDILNIFKTYIPKDFATLYQGWGVSGPGLEHRGTLRTQARPGEFVCIECGKSFHQPGHLRAHMRAHSVVFESDGPRGSEVHTTSADAPKQGRDHSNTGTVQTVPLRKGT
binding [3]: no binding
binding [4]: no binding
binding [5]: binds
binding [6]: binds
